± gives the standard deviation of the averaged measurements. Over roughly 4,100 sequences, “arbitrary fluorescence units” has its median near 780; the highest 2% begin near 22,000. The list shows a part of the results.
Target: T1, ETS1 (UniProt P14921)
T1 sequence: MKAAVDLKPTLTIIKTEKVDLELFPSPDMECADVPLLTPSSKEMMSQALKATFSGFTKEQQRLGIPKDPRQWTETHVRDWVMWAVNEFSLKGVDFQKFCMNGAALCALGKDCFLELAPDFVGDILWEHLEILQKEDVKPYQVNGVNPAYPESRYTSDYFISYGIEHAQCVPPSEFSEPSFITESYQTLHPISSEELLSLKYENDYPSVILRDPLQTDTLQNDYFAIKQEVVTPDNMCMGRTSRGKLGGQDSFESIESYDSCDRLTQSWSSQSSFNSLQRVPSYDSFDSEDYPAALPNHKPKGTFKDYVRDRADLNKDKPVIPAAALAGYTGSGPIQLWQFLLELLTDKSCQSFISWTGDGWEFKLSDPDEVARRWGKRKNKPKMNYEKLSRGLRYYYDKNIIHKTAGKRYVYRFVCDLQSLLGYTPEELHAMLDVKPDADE
Assay: ETS1 binding intensity (PBM fluorescence), ETS1 alone (arbitrary fluorescence units); higher = stronger binding
Conditions: ETS1 concentration 1 nM; RUNX1 concentration 0 nM
Outline: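 Recombinant full-length human ETS1 was applied at 1 nM, without RUNX1, to double-stranded Agilent 4 × 180k arrays of 36-bp genomic probes carrying a mutated RUNX1 partner site, following standard PBM protocols. Detection used an anti-ETS1 antibody (Cell Signaling Technology 14069) and an Alexa488-conjugated secondary antibody, with scanning on a GenePix 4400A. Each sequence was printed as four replicate spots. Binding level is the spot fluorescence intensity, summarised across replicates and not normalised.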

| Sequence | ETS1 binding intensity |
| --- | --- |
| CGAACTCCCGTCCGGCCGCGCCTGCAGCCCGCCGCC | 687 |
| TCATGCTGCTTCCTGCCCAACCAGCAGTTCCGATAA | 8650 |
| AGCGGCGGCGGCCGGGCCGGGAGGATGTGTGTGTGC | 408 |
| GCAGGGCCAGCGGCGCTCGCGGAAGTGCCACGGTGC | 387 |
| TTGAGGGTCCACCTCTGCGCTTCTCCTTCCTGATCA | 314 |
| GGGCGCCCGCGATTTAGAAACTACATTTCCCATGAG | 376 |
| GAGGCAGGCGGATGTCAGTGTCGTTAGAGCACAGTG | 2340 |
| GCCCTTCTTGCGATTTTCATGGCAGGATGTTAACAT | 689 |
| AAGGAGGCTACAAGGCCCAACGCAGGAAGTGAAACC | 707 |
| CTCCCGCCACGGCGCGCCCGCGCTCCGGAAAGGCGG | 354 |
| GATTCCTGAACAGCGGGGAAGGAAGTCCCTGTGAGG | 517 |
| TCCCAGCAAGCACCTCAGCTGGCGCGCGGAAAACCC | 315 |
| ACACTGGCCGGAAGGGGCGGGACAGCGAGTTAAGAG | 3370 |
| GCAGGAAACGCTTTCTTAACACTATGAGGGTGAGGT | 755 |
| ACTCCCACCGAAGGCCCCACTACGGACCGGAAGTCA | 4260 |
| ACCGGAAGGGCGGGGGCGTGGCGAGGTACCTCAGAC | 1410 |
| CTTTGTGACTTTTTCTTGGTAGTTGGGCAGGAAGCC | 476 |
| AGGGTGGCGGCAGAGCCATGGACTTCCGGTCCCTGC | 14000 |
| AGTGCTGTTTCTGGTGAGGGCCCTCTTCCTGGCTTG | 482 |
| CACCTCAGCTTCCTGTGTAGCTGGGACCCCAGGCAT | 9920 |
| GAAAAGCAGCGGATTCCCTTTGAGCCGGAACAGGAG | 385 |
| GAGAAGGCAACCCCGAAAAGGAGGCGGAAACGCCTC | 606 |
| CCCACTTCCTGTCCCTGCATGCTCTGGGGCAGGCAG | 31100 |
| AGGGGCTTCTGGGAACCGGCCGGAACCGGCTGTGGA | 347 |
| GTTTTGTTATCCGCCCGCACCTAGAGGCCGCGAGGC | 961 |
| GGGGTGGGGACACCGTGGAGGCCCGGAAATGGTGAC | 2440 |
| GGGGACGGCCCCTCAGCTCCCGGACGCCACGGCCAG | 325 |

| Sequence | ETS1 binding intensity |
| --- | --- |
| GGCTAGCATCCGCTTCCCAGAGCCCCTCAGCCGGGG | 6470 |
| CAGGGGGCGGAACGTAAAACGCCTTGTAGCCGACGC | 527 |
| AGTTTTCCGTCGGGCTCCCAGTGACGCCGAAGAGGT | 2580 |
| CTTAGCGGAAGAGGCGTGACCCAGGCGTACCCCAGG | 1380 |
| CTGCAACCTTAAACCAGCTCCCAGGGCCAGGAAGGT | 349 |
| CTTTCGCTTCCTTTCCCCGCCTCTTAGTCCCGAAGA | 2880 |
| CTTGTGCCTACATCCTGTAGCTGTGATTTAGGGACG | 6270 |
| ACTCAAAAAGCACCTCCCCCTCAGGGAGGAAGGAGG | 368 |
| CGCCTCGCCTCTTTCCGCCAGCGCCCTCAGGACCCG | 830 |
| TGGCTTGTTTCCGGTTCCTCAGTGGCGCCGTTCTCG | 21100 |
| GACCTTCACCTACAAGAACCACTTCCTCTCAGTAAA | 2720 |
| CCAGCAAAGGAAGCTTGGTCAACGACAGCAGCCTGT | 461 |
| ACACCGGAAGCCCAACAGCATGCCGAGTAAGCACCC | 7470 |
| GGCCAGGCAGGAAGTCCCGCGCCAAAAGCGGCCGTC | 4900 |
| GAACCCCAGAAATCGCGAGCCGTTTCCTTTCTCTTC | 731 |
| CTGGCCAGCGCCCGCCACCACTTCCTCCTCCCCATG | 1300 |
| GTCGTGGAGGTCGCGAGGGAGCCGGAAAGATGGTGG | 408 |
| GCCGAGCCAGGGGTTTCGCATCCGCACTTTCGCCAC | 595 |
| CATTTCTGTTGGGGTTGGCAGCGTTTCCTTCCACGG | 454 |
| GGGAAGGACTACGGCACAAGGGACTTCCGGCTCTTG | 6480 |
| TCCCCACACTTCCGGCCCCGCGCGCACAGCCGCACC | 25400 |
| CTTACTATATTAACGCCGGTACACATCCGCCCGACA | 1800 |
| CTGAGGCGCGCCGGAAGGGCTAGCAGTCCCAGCATA | 1100 |
| CCCAGGGCAGGAAGGGCCAAACGGCTACTGCCACTG | 731 |
| CAAGAGGAACCGGAACTTTGGAAACTACATTCTTAT | 1500 |
| ACCCAGGGGACTTCCTGGCTCAGTGCCACGACCCAG | 5860 |
| TGGCGTGGATTTTTTTTTTTTTTTCACCCGGAAACC | 446 |

| Sequence | ETS1 binding intensity |
| --- | --- |
| AAGTGGGGTGAAGGAAGCTGTACACCGTGGAGTCAC | 399 |
| CGTCCCTAAATCACAGCTACAGGATGTAGGCACAAG | 1160 |
| CAAACGATAGCAGGAAAGGCCTGTGACTTGACAGCA | 384 |
| GCTGCCACTTCCCTTGCTTATTTCATGTGATTTGGA | 2600 |
| AATACCCTCTGGTGGCCGCCGGAAGTGTGTCGGCGG | 3120 |
| TGCGCCGGAAAGCAACGGCAAGGGCCGAAGCCAGCA | 552 |
| GAGGGCTGTTGTAGTTAGGACGGCTTCCTGGGTGGG | 532 |
| CTGCCTGCCCCAGAGCATGCAGGGACAGGAAGTGGG | 1380 |
| CCCTCTTCGGGACGAAGAAGGGGGATGTGCTGCTGG | 426 |
| AACAAACCGGATGGGGTTCCCACCTGCAATCTTGTC | 3820 |
| AAGATGGCGGGCGCTGAGCCGCCCACTTCCCCCTCC | 321 |
| GATCTTCCTGCAACCCCCCGAGACAACGACCGAACA | 3030 |
| TCGGGTGCGCAGTTCGGGGGCGGCTCGGAAACCCCA | 439 |
| GAAGCGATATTTCCTCCTGGGGTTGAACGCCCCGTG | 1730 |
| TGGTGACCCCGCCGCTCCAGCGTCGCGCTTCCGGGC | 955 |
| GGCAAGCTGGTGGATAAGATTCTCAGGAAGGAAGAC | 440 |
| GCTCATTTCCTGGCCGCTCCTGGGCTTCGAGGTGAG | 8460 |
| GGCCAAGGAAGCGGCCCCCTAAATCCGCTCCAGGGA | 458 ± 44 |
| CAGTCAAGAGGAAATTATAAAGCACTGCCTCTTTGA | 709 |
| TTCTTCCGGCAACTGCTGCTGAGGCTTCGGTGGCGG | 8240 |
| TGCGGAAGAGGAACACGTGACGGTCGTGGCCCTTCT | 374 |
| CTCGACAGGGCGCGGAAGGGAGCGGAGGGCGCGCCC | 335 |
| GAGAGGAGGATGTTGTCAGATACCTACAAATGAGAA | 985 |
| GCGGCCTACGGGAGGACGGTGGTGCTTTCCGGCCTA | 476 |
| CCTGCTGCTTCCGCCCGGAGTTGTTGAGGGCTCCAG | 8210 |
| TGTAGAGGAGGTGGATTCCATCACGGAAGGCCGAAG | 411 |

Reference: the supplement of paper PMC10681739
